The other results are listed elsewhere or left out. These are noisy estimates, calculated here from bound and input reads.
Each sequence was assayed against T1, Pho4 (S. cerevisiae) (UniProt P07270) (assay: relative binding free energy (BET-seq); higher = weaker binding). Conditions: reference: library average.
T1 sequence: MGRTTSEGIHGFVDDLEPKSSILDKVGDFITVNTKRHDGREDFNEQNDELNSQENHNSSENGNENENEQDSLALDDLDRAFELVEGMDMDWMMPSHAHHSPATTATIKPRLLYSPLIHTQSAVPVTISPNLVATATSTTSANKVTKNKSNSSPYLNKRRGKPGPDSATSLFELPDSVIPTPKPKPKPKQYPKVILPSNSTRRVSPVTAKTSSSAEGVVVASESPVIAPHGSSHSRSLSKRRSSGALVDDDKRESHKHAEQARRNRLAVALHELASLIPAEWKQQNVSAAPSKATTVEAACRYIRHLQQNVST

Relative binding free energy, 0.15 kcal/mol:
TGAGTCACGTGTGCCG, TGGGGCACGTGAGGAG, ATTTTCACGTGGTCGA, GCGTACACGTGTTTAT, GCATTCACGTGGGGAT

Relative binding free energy, 0.17 kcal/mol:
TGTTTCACGTGCGGGA, CGTTTCACGTGTGTCG, TTTGCCACGTGATAAG

Relative binding free energy, 0.48 kcal/mol:
GATTTCACGTGTTCGT

Relative binding free energy, 0.11 kcal/mol:
CGTGGCACGTGAGGAA, TGCGTCACGTGCTATT, TTCGCCACGTGAGTGT, TAGTGCACGTGGAAGT

Relative binding free energy, -0.22 kcal/mol:
ATTGGCACGTGGGGCA, AGAGGCACGTGGGGCT, TTGGCCACGTGGGTCA

Relative binding free energy, 0.07 kcal/mol:
GGTAACACGTGGAAGG, GTTGACACGTGTTTTG, GTTTGCACGTGGGAGA

Relative binding free energy, 0.09 kcal/mol:
TGTGTCACGTGTTTCG, TTCGACACGTGTTGCG, ATAATCACGTGGGGTA, TTCATCACGTGATGTT, TGCGTCACGTGTTATG

Relative binding free energy, -0.03 kcal/mol:
TGAGGCACGTGTTAAA, TGGGACACGTGCCGTT, TTTGTCACGTGGCTCA, GGGTGCACGTGGGCAT, ATGTGCACGTGTCGGA

Relative binding free energy, 0.35 kcal/mol:
TTAGTCACGTGATGGC, ACTTTCACGTGGCGGG

Relative binding free energy, 0.02 kcal/mol:
GTTAACACGTGCTTTT, AGTTGCACGTGAATGA, TTCTGCACGTGTCGGT, TGGGCCACGTGGTCTT

Relative binding free energy, 0.26 kcal/mol:
GGTCTCACGTGGGACG, TTGGTCACGTGGAAGT

Relative binding free energy, 0.44 kcal/mol:
GGTTACACGTGAGTTC

Relative binding free energy, 0.56 kcal/mol:
TGTTTCACGTGAGAAC

Relative binding free energy, 0.33 kcal/mol:
GTTTTCACGTGCAAAG

Relative binding free energy, 0.22 kcal/mol:
GTTATCACGTGGGAAA, ACATTCACGTGTTGGT, CGAGACACGTGTGGTT, GGTTACACGTGTCAGT

Relative binding free energy, 0 kcal/mol:
GGGAACACGTGGGTCG, TAAGTCACGTGTTATG, GTGTGCACGTGTAGAG, TTGGTCACGTGCCTGG, TGAGACACGTGTGCGT

Relative binding free energy, 0.49 kcal/mol:
TGAATCACGTGAGGGG

Relative binding free energy, 0.28 kcal/mol:
GGATTCACGTGCGTGG, ATGTTCACGTGTCATA, TTTCTCACGTGATCGT

Relative binding free energy, -0.18 kcal/mol:
CTGTGCACGTGCAGGG

Relative binding free energy, -0.12 kcal/mol:
TTGGGCACGTGTCATA

Relative binding free energy, 0.23 kcal/mol:
GGTATCACGTGCGAGG, TGTGTCACGTGAAGGC, ATCGTCACGTGACGGG, TGGGTCACGTGAACAG

Relative binding free energy, 0.41 kcal/mol:
AATCTCACGTGAAGTT

Relative binding free energy, 0.14 kcal/mol:
TGCTGCACGTGTAATT, TTGTTCACGTGGACAG, GTACTCACGTGGTTAT, TGGTTCACGTGGGCAG

Relative binding free energy, 0.08 kcal/mol:
TTTTGCACGTGTGTGA, TGAATCACGTGGGTAC, CTGGGCACGTGGAAGA, TTTAGCACGTGAGTTG, GGGTACACGTGGCGAG, TCTGGCACGTGTTACT, TGTTCCACGTGTTGTT

Relative binding free energy, 0.3 kcal/mol:
GTGATCACGTGGAAGT, TTCTACACGTGATTTG, GTTTTCACGTGAAGTC, GGTTACACGTGAAATT

Relative binding free energy, 0.25 kcal/mol:
TGAGTCACGTGACGGT, GAGTACACGTGTCAGG, GTCGGCACGTGAACGG

Relative binding free energy, -0.09 kcal/mol:
TTACGCACGTGTGGAG, GTTAGCACGTGGTGTC, AATGTCACGTGGGGTA, TTGATCACGTGGGCAT, GGACGCACGTGTGTTG, CGCGGCACGTGCGGGG, TTAAGCACGTGTGCTA, GGCGGCACGTGCGTGA, TAGGTCACGTGCGCGT, ATACGCACGTGTTGGA

Relative binding free energy, -0.43 kcal/mol:
CGGGGCACGTGGGTCA

Relative binding free energy, 0.36 kcal/mol:
ATGTTCACGTGACGGG

Relative binding free energy, 0.39 kcal/mol:
GTGTTCACGTGAGGTA, GTTGTCACGTGATGTG

Relative binding free energy, -0.25 kcal/mol:
ACGGGCACGTGGTTAG

Relative binding free energy, 0.29 kcal/mol:
AACGGCACGTGAGAGT, AAGGTCACGTGGTTCG, AGGTTCACGTGGTGGC, TTTTACACGTGACGAG

Relative binding free energy, -0.08 kcal/mol:
TTCGGCACGTGGAGGT, CTGACCACGTGTGGGT, AGTTACACGTGGGTAC

Relative binding free energy, 0.01 kcal/mol:
TATGCCACGTGTGTCT, AGGTGCACGTGACCGG, TTGAACACGTGGGCGG, CTGCTCACGTGGGGTG, GTTGGCACGTGTAATA, GTATGCACGTGTCATT, CTTGGCACGTGAATGT

Relative binding free energy, -0.02 kcal/mol:
GAGTGCACGTGTTGTG, CGTCTCACGTGGGTAG, CTATGCACGTGTGATT

Relative binding free energy, -0.2 kcal/mol:
AAAAGCACGTGGGGGG, TGGGCCACGTGGGGCT, AATGGCACGTGGGGAC

Relative binding free energy, -0.14 kcal/mol:
GTTAGCACGTGGGGAG, TGGTGCACGTGTCATG, GGGGCCACGTGCGGGA, ATTTGCACGTGGCCGG, TGTTGCACGTGGTGTA

Relative binding free energy, 0.18 kcal/mol:
TCATACACGTGATGTG, AGTAGCACGTGAAGTA, CATGTCACGTGACGGG

Relative binding free energy, 0.19 kcal/mol:
CGGTCCACGTGAAGGG, GCGTTCACGTGGGGCT, GTGTTCACGTGTAGGA, TAGCTCACGTGGTTAG, GGTCGCACGTGAGTAA

Relative binding free energy, -0.01 kcal/mol:
TTTCGCACGTGGGATT, GGAGGCACGTGTGGAA, CATGGCACGTGTTGGG, GGTGCCACGTGACGGT

Relative binding free energy, 0.1 kcal/mol:
AGGGTCACGTGTTGCA, CTGGACACGTGGAGTT, GTGTCCACGTGTTTGG, CATTGCACGTGATTTT

Relative binding free energy, -0.11 kcal/mol:
TTGTGCACGTGGCTTA, TCAGGCACGTGTCGTG

Relative binding free energy, -0.24 kcal/mol:
TGGAGCACGTGCGCGT, AGGGGCACGTGGGCAA

Relative binding free energy, 0.34 kcal/mol:
GTGATCACGTGATGCG

Relative binding free energy, 0.16 kcal/mol:
GGATACACGTGGTGAT, TGTAGCACGTGAGCGG, CGGGACACGTGGTAAT, ACTTGCACGTGATGGT, TTTTCCACGTGGCGGC, AGTTTCACGTGGGGTG, GTAATCACGTGGAGGG, GTGATCACGTGGTTGT, GATTGCACGTGTATTT

Relative binding free energy, 0.37 kcal/mol:
GATTTCACGTGAGCGG

Relative binding free energy, 0.12 kcal/mol:
TTTGGCACGTGAGAGG, TTCATCACGTGGTAAG, TGTTACACGTGGGAAA, TGAGTCACGTGTGCAT, GTTTGCACGTGTTCGG

Relative binding free energy, -0.27 kcal/mol:
CTGAGCACGTGGGTGC

Relative binding free energy, 0.13 kcal/mol:
TTTTGCACGTGAATAT, GTAATCACGTGTTGCG, TATAACACGTGTGGGG, CATGTCACGTGTGCGT, CTGTCCACGTGTGGCG

Relative binding free energy, -0.06 kcal/mol:
TAATGCACGTGGGAGC, GTAGCCACGTGGGGAA, TGGTGCACGTGGCCGT, TGGGTCACGTGGGTGA, AGCGTCACGTGCGTTG, TGGTGCACGTGGTGCA, ATCGGCACGTGTGTTA

Relative binding free energy, -0.05 kcal/mol:
CGTGGCACGTGATTTT, CCTGGCACGTGGAGTT, GGTGGCACGTGGTATA, TAGGTCACGTGGGTGT, TAGTGCACGTGGAGCT

Relative binding free energy, -0.19 kcal/mol:
GCATGCACGTGGCGGT, TTTACCACGTGGTGGG, ACTGGCACGTGGGAAT, TCATACACGTGGTGTT

Relative binding free energy, 0.46 kcal/mol:
AACTTCACGTGAGGTT

Relative binding free energy, 0.31 kcal/mol:
AGTATCACGTGTGTGA, ATGTTCACGTGAATAT, AGTTACACGTGATAAT, TGTCTCACGTGAGGCG

Relative binding free energy, 0.27 kcal/mol:
GCATTCACGTGAGGGG, ATGGACACGTGAAAGG, AGTAGCACGTGAGGTA

Relative binding free energy, -0.17 kcal/mol:
TTTGACACGTGGGCTT, GTTGGCACGTGCTAGT, TGGTACACGTGGGTAC

Relative binding free energy, -0.38 kcal/mol:
TGTCCCACGTGGGGGT

Relative binding free energy, 0.04 kcal/mol:
GGGAACACGTGGTGGA, TGGGGCACGTGTAGCC, CTAAGCACGTGTGTTT, GAGTGCACGTGGAGTT

Relative binding free energy, -0.23 kcal/mol:
TAACGCACGTGCGGGG, ACTGGCACGTGGGTGG

Relative binding free energy, 0.05 kcal/mol:
TAAGTCACGTGGCGGA, GTTGTCACGTGTCTGG

Relative binding free energy, 0.06 kcal/mol:
TGTTCCACGTGGTAGA, ATTATCACGTGTATTA, TAGGTCACGTGTGCTT, GCTGTCACGTGGCGGA, ATGATCACGTGGGGTT

Relative binding free energy, 0.21 kcal/mol:
ATTGACACGTGTACTT, GTTGCCACGTGATGGG, CGGAGCACGTGTTGCA, GAGCGCACGTGAGTGT, ATTCTCACGTGTGTTA, AGAATCACGTGGGTGA, GGTATCACGTGGGATC

Relative binding free energy, 0.03 kcal/mol:
GTATCCACGTGTGGTG, TCCTGCACGTGTGTTG, GTTACCACGTGGTGCT, GGAACCACGTGTGTTG

Relative binding free energy, -0.13 kcal/mol:
GGCGGCACGTGCGTAG

Relative binding free energy, 0.32 kcal/mol:
AATTCCACGTGAGTTT, TGTTACACGTGAATCA

Relative binding free energy, -0.15 kcal/mol:
GGCGACACGTGGGTGG, TGGGGCACGTGGGTAG, GGAGGCACGTGGGTCA, TAGCGCACGTGTTTGT

Relative binding free energy, -0.1 kcal/mol:
AGTTGCACGTGTGCGG, AACAACACGTGGGGGT, AGACGCACGTGTTGGT, ACGTGCACGTGTGTCG, TTAGGCACGTGATGGA

Relative binding free energy, -0.07 kcal/mol:
ATCGGCACGTGCTTGG, GGTCACACGTGGGCTG

Relative binding free energy, -0.04 kcal/mol:
TCGTGCACGTGTGGTC, CATTGCACGTGCGGGG

Relative binding free energy, 0.2 kcal/mol:
TTTGTCACGTGTAAGT, AAACTCACGTGTGTTT
